In the RNAGym collection of RNA variant scans (doi:10.7554/elife.90254) one finds self-cleavage data, which are given here for 167 variants.

First the molecules themselves.
B1: LINE1-mini (parent)
chain: GGCAGAGCUCAACACAGCGUGGCAAAGUGGCUGUGGCUAGACUGCC

Read counts are not given, so values of variants with three or more changes are uncertain.

This data set covers variants of B1. Kind of data set: self-cleavage, relative activity (ratio to wild type); higher = more cleavage; in vitro, sequencing; the parent is a self-cleaving ribozyme.
G2U G19U G44A: the self-cleavage amounted to 0.13.
Regarding G2U C15U C42U, the self-cleavage was found to be 0.06.
As for G2U C23G A26U C45U, the self-cleavage worked out at 0.05.
Regarding G2U C13G G29A C31U U32A, the self-cleavage was found to be 0.01.
As to G2U G17U U20G, the self-cleavage is 0.01.
As for G2U C13U A16G G17A A39G, the figure is 0.06; as for C3A A6C A11C, 0.04.
Consider G2U G35C C46G, for which the self-cleavage was 0.01.
Consider C3A A4G C18G G19U, for which the self-cleavage was 0.02.
As for C3A A6G C10U C42A, the self-cleavage is 0.05.
On to C3A A4G G36U, for which the self-cleavage is 0.15.
In the case of C3A A4C U20G G21U, the self-cleavage was found to be 0.19.
On to G2U U9A C13A A16U U34G G40A, for which the self-cleavage stood at 0.02.
Consider G2U G5C C10U A11U C18U, for which the self-cleavage is 0.01.
In the case of G2U G29A U32G G40C, the self-cleavage came out at 0.
Consider C3A A4C G35U A39G, for which the self-cleavage was 0.27.
As for G2U C23A A25U G30C, the self-cleavage turned out to be 0.14.
Regarding G2U G19U A25U A39U, the self-cleavage is 0.04.
As for G2U G35U C46A, the figure is 0.35; as for G2U C18A G35C G36A, 0.12.
For the variant G2U G17A A41G, the self-cleavage came to 0.
As for G2U G27A C37G, the figure is 0.01.
The same measure for G2U C15A C23U A26U: 0.03; for G2U C13U G21C C31U G44A: 0.03; for C3A A6C C15A G30U C31G A39G: 0.15.
As to G2U C13U A14C G36C, the self-cleavage was 0.02.
Turning to G2U G5U U9G A14U C45A, the self-cleavage worked out at 0.
With G2U G7A A12U C37A U43A, the self-cleavage stood at 0.04.
On to G2U C23U G33A, for which the self-cleavage is 0.01.
As for G2U C10G G44A, the figure is 0.01.
With G2U G33C G40C, the self-cleavage turned out to be 0.01.
In the case of G2U C18A A25U G44U, the self-cleavage was determined as 0.03.
For the variant C3A A4C U32C U38C C42G, the self-cleavage was determined as 0.11.
On to G2U G19A G30C G40A, for which the self-cleavage is 0.02.
For G2U C15U G21C G22C G33U, the self-cleavage amounted to 0.07.
The same measure for G2U U9C U38A: 0; for G2U G19A G35A: 0.11; for G2U C15A C23G: 0.02.
As for G2U G5C A12C G22A A25G C37G, the self-cleavage came out at 0.
The same measure for G2U C15A G19A: 0.02; for G2U G19C G22A: 0.51.
In the case of C3A A4U G33C, the self-cleavage was determined as 0.03.
In the case of G2U G29U C45G, the self-cleavage turned out to be 0.38.
For G2U G7A C8U G22A C45U, the self-cleavage came out at 0.03.
The same measure for G2U U9A U28G C31A U32G: 0.02; for G2U G5A C8A G17A C18A: 0.06; for G2U G5A C15A: 0.05.
Consider G2U G29C U32A G36A, for which the self-cleavage amounted to 0.05.
The same measure for G2U G19C A24U C37G: 0.05; for C3A A4C G7C U34G: 0.02.
Regarding G2U G21A C23A G29C, the self-cleavage came out at 0.1.
Regarding G2U G5C G40A C46A, the self-cleavage came to 0.02.
Regarding G2U G21C A24G G44U, the self-cleavage worked out at 0.05.
Turning to G2U C18U G30A G33A, the self-cleavage amounted to 0.01.
As for C3A A4C A6G A16G G29U, the figure is 0.15.
As to G2U G5A C10U A11U C18G U32G, the self-cleavage worked out at 0.01.
Take G2U U32C G35A G36A: the self-cleavage turned out to be 0.04.
For the variant C3A A4U C8A G22C G36U, the self-cleavage came to 1.02.
As for G2U G30U G33U, the self-cleavage amounted to 0.03.
As for C3A A4C A16G, the self-cleavage was found to be 0.06.
As for G2U G7A C37G, the figure is 0.05; as for G2U G5A C13U, 0.04.
As for G2U C15U G30U U32C, the figure is 0.04.
Take G2U G30U G33U G44U: the self-cleavage worked out at 0.04.
Turning to G2U U32G C42A, the self-cleavage turned out to be 0.02.
Consider C3A A4U C10A A25C G33A G36C C42U G44C, for which the self-cleavage was 0.01.
As for G2U U20A G33A C46U, the figure is 0.01; as for G2U C15G G35C G40C U43A, 0.
Regarding G2U G29U G35C G40U G44C, the self-cleavage stood at 0.01.
With G2U G19U C23U A39C, the self-cleavage was determined as 0.01.
Take C3A A6C A26U G36U: the self-cleavage amounted to 0.11.
Regarding C3A A6C A12G G36U C42G, the self-cleavage came out at 0.03.
As for G2U U34G A39C, the self-cleavage turned out to be 0.
For G2U C23G A41G, the self-cleavage was found to be 0.03.
Turning to G2U C23A U34C A39C, the self-cleavage was determined as 0.
As for G2U G21U A41G U43C, the figure is 0.
The same measure for C3A A4G U32C U38A C42G: 0.07.
Consider G2U C13U A16C A25C G33A, for which the self-cleavage is 0.04.
In the case of C3A A6U C8G G30A C42G, the self-cleavage stood at 0.16.
As for G2U G22U G35U, the figure is 0.06.
As for G2U C13A C18G, the figure is 0.06; as for G2U U20G G44A, 0.04; as for G2U C23A G36C, 0.21.
The same measure for G2U G7C A16C G17A G30A C37A: 0.09; for G2U G5A A6U A11C: 0.01; for G2U G5C C13A A25U: 0.04.
Take G2U G30U G35A: the self-cleavage was 0.12.
Regarding G2U G7U G30C G40A, the self-cleavage was 0.05.
As to G2U G17U C23G, the self-cleavage is 0.02.
Consider G2U U34A G35U, for which the self-cleavage is 0.01.
As for G2U U9A U43A, the self-cleavage was 0.03.
The same measure for G2U G7A C8A G30U C46A: 0.08; for G2U C10U G22A: 0.01.
G2U G5U G40C: the self-cleavage turned out to be 0.04.
For the variant G2U G22U C45U, the self-cleavage amounted to 0.07.
In the case of G2U G22C A41G, the self-cleavage was 0.01.
For the variant G2U G7A G30A, the self-cleavage came to 0.08.
Take C3A A4C G27A U34C A41C: the self-cleavage was 0.07.
G2U C13U A24C A39C: the self-cleavage came to 0.02.
On to G2U G17U U20G U32C, for which the self-cleavage came to 0.03.
With G2U G7U U32G C45U, the self-cleavage turned out to be 0.01.
G2U U32G C45A: the self-cleavage is 0.04.
With G2U G19C G35C C45U, the self-cleavage turned out to be 0.02.
Consider C3A A6U A14G G22A, for which the self-cleavage came out at 0.12.
Consider G2U G5C A6G G7U A11C A16G G36U, for which the self-cleavage stood at 0.01.
C3A A4C G19U A39U: the self-cleavage stood at 0.52.
G2U G5A G7A C10U A11C A16C: the self-cleavage turned out to be 0.01.
The same measure for G2U G7A G27C U32C: 0.09.
With C3A A6C A14G C31A, the self-cleavage was 0.02.
In the case of G2U G5C A25C G27U U43C, the self-cleavage worked out at 0.01.
As to G2U G5A G33A, the self-cleavage was found to be 0.03.
As for G2U G7C G19A C23G A26C C31A G33U A41U, the self-cleavage was 0.02.
The same measure for G2U G21C G36A: 0.02.
With G2U C37A C42U, the self-cleavage amounted to 0.08.
With C3A A4C G17U G40C, the self-cleavage was found to be 0.23.
With G2U G17A C18G U38C, the self-cleavage is 0.03.
In the case of G2U G7U C15G G35U, the self-cleavage is 0.3.
For G2U G5U A11U A39U G40U, the self-cleavage was 0.
Regarding C3A A4U C10U U20A, the self-cleavage came to 0.11.
Take G2U C18U C37A: the self-cleavage was found to be 0.01.
For the variant G2U G7A G17A G27A U43G, the self-cleavage was 0.15.
For the variant G2U G19U C23G, the self-cleavage came to 0.06.
As to G2U U9A A16U C31A U38G, the self-cleavage was determined as 0.02.
In the case of C3A A6U C10A G21A, the self-cleavage stood at 0.03.
G2U U9C G33U A39G G40A A41C C42U: the self-cleavage was determined as 0.
As for C3A A4C A12C G36U, the figure is 0.09.
In the case of G2U C10G G21U, the self-cleavage was found to be 0.03.
For the variant G2U G5A C18U U38C, the self-cleavage was 0.03.
On to G2U C13U U32C, for which the self-cleavage came to 0.04.
Consider G2U G5C G7U G19U U34A U38C, for which the self-cleavage was 0.07.
In the case of G2U G44A C46A, the self-cleavage turned out to be 0.03.
On to C3A A4C C15U U43C, for which the self-cleavage amounted to 0.35.
Regarding G2U G19A A24G, the self-cleavage was 0.06.
For the variant G2U G5U A14C G44C, the self-cleavage is 0.02.
As to G2U G7A U20C G27A G29U, the self-cleavage was found to be 0.02.
As for C3A A4C C46A, the self-cleavage was found to be 0.34.
On to G2U G21C A24U G29U G33A G36U, for which the self-cleavage turned out to be 0.02.
As for G2U G7C A11U C15A A16U U34G A41C, the self-cleavage was determined as 0.01.
As to G2U G27U C31A U32C, the self-cleavage was determined as 0.05.
G2U C10U G29A: the self-cleavage is 0.05.
With G2U G7C U20G U32C U38A C45G, the self-cleavage came out at 0.02.
For G2U G5U G29A G36A A39C, the self-cleavage was determined as 0.
As to G2U C13U A24G G27C G29A C46G, the self-cleavage came to 0.1.
On to C3A A6G G19U U34A, for which the self-cleavage is 0.15.
As for G2U C13U G22C C45A C46A, the figure is 0.12; as for C3A A6G A16U G36U, 0.06; as for G2U C13A U20G C46A, 0.02.
As to G2U U9C C15U C18U G30C, the self-cleavage turned out to be 0.01.
With G2U C10G C15A A16C A39U, the self-cleavage worked out at 0.02.
Regarding G2U G5C G19A A25U G40U, the self-cleavage worked out at 0.02.
For G2U G30C C31G, the self-cleavage was 0.04.
Take C3A A6U C8G G22A G44A: the self-cleavage turned out to be 0.
For the variant G2U G5U C23G U43A, the self-cleavage is 0.
The same measure for C3A A4U G29C: 0.08.
As to C3A A4U G36A C37A, the self-cleavage was 0.39.
With G2U U28G G40A, the self-cleavage came to 0.
On to C3A A4C U20C, for which the self-cleavage was found to be 0.24.
Turning to C3A A4C A26C, the self-cleavage was 0.25.
On to G2U C15U A25G A26C G33C U38A, for which the self-cleavage turned out to be 0.
As for G2U C13U G22U G27C, the self-cleavage turned out to be 0.06.
As to G2U G5U A6C C42A, the self-cleavage was 0.02.
Regarding G2U G35A C42G, the self-cleavage was determined as 0.01.
In the case of G2U C13U U20C, the self-cleavage amounted to 0.03.
As to G2U G5C C10G G21A U38A G44U, the self-cleavage was found to be 0.01.
Regarding C3A A4C C15U G21U C42U, the self-cleavage worked out at 0.11.
On to G2U C18U A25G, for which the self-cleavage amounted to 0.02.
For the variant C3A A6C G7U A16C A25U C37G U38C, the self-cleavage amounted to 0.13.
